Measured values reported in the supplement of paper PMC9334596.
“And” between values parts separate entries of the source, which are not always exact repeats. Identical values can stand only once. In all, about 5,300 compounds were measured (“PER2::LUC luminescence relative to vehicle control”: median about 0.96, highest 2% from about 1.3 on). This is one part of the list.

System: mPer2Luc MEF
Test: PER2::LUC luminescence relative to vehicle control (fold of vehicle); higher = higher PER2::LUC reporter signal
Settings: 10 µM
In short: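 Mouse embryonic fibroblasts carrying the mPer2Luc reporter were seeded at ~3000 cells per well in 384-well plates, 48 h before compounds from commercial libraries were added at 10 μM. Cells were grown in DMEM with 10% FBS at 37 °C and 5% CO2. Luminescence was read with the ONE-Glo luciferase assay system 24 h and 30 h after treatment, followed by an alamarBlue viability assay. The value is PER2::LUC luminescence as fold of vehicle control.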

Structure (SMILES) | PER2::LUC luminescence (time after treatment 24 h) | PER2::LUC luminescence (time after treatment 30 h)
COc1ccc(C(CN(C)C)C2(O)CCCCC2)cc1 (stereo unspecified) | 0.911 and 0.541 | 1 and 0.808
COc1cc2c(cc1OC)-c1c(oc3c4c(ccc3c1=O)OC(C(C)C)C4)CO2 (stereo unspecified) | 0.967 | 0.977
CCN(CCCl)Cc1ccccc1Br | 1 | 0.815
CC(=O)[C@H]1CC[C@H]2[C@@H]3CC[C@H]4C[C@H](O)CC[C@]4(C)[C@H]3C(=O)C[C@]12C | 0.966 | 0.917
CC(=O)c1c(O)c(C)c(O)c(Cc2c(O)c3c(c(C(=O)/C=C/c4ccccc4)c2O)OC(C)(C)C=C3)c1O | 0.738 | 0.764
CCOc1cc(C=O)ccc1O | 0.938 | 0.851
COc1ccccc1N1CCNCC1 | 1.1 | 1.2
C=C1[C@@H](C)[C@H]2[C@H](Cc3ccccc3)NC(=O)[C@]23[C@H](OC(C)=O)/C=C/[C@@](C)(O)C(=O)[C@@H](C)C/C=C/[C@H]3[C@@H]1O | 1.05 | 0.997
C=C1C[C@@H]2[C@H](CC[C@]3(C)C(=O)CC[C@@H]23)[C@@]2(C)C=CC(=O)C=C12 | 0.932 | 1.01
O=C(O)c1cc[c]([Hg][Cl])cc1 | 1.2 | 1.14
CC(N)Cc1c[nH]c2ccc(O)cc12 (racemic) | 1.05 | 1.09
FC(F)(F)c1cccc(N2CCNCC2)c1 | 0.975 and 0.794 | 0.781 and 0.743
CC1=NN=C(c2ccc(N)cc2)c2cc3c(cc2C1)OCO3 | 1.05 | 0.803
C[C@]12C/C(=C/O)C(=O)C[C@@H]1CC[C@@H]1[C@@H]2CC[C@@]2(C)[C@H]1CC[C@]2(C)O | 1.01 | 0.774
C[C@H]1CNCCc2ccc(Cl)cc21 | 0.947 and 0.839 | 0.969 and 0.871
CSCCC(NC(=O)C(Cc1ccccc1)NC(=O)CNC(=O)CNC(=O)C(N)Cc1ccc(O)cc1)C(=O)O (stereo unspecified) | 0.995 | 0.903
CC1CC(Cl)CCC1C(=O)OC(C)(C)C (stereo unspecified) | 0.953 | 0.925
CCOP(=S)(OCC)Oc1ccc2c(C)c(Cl)c(=O)oc2c1 | 1.03 | 1.18 and 1.16
Cn1c2c(c3ccccc31)CCNCC2 | 1.1 | 0.994
O=C1C=CC(=O)C=C1 | 0.854 | 0.939

Structure (SMILES) | PER2::LUC luminescence (time after treatment 24 h) | PER2::LUC luminescence (time after treatment 30 h)
COC[C@@H](NC(C)=O)C(=O)NCc1ccccc1 | 1.17 | 1.19
COc1ccc2c(c1OC)C(=O)OC2C1c2cc3c(cc2CCN1C)OCO3 (single isomer, unassigned; (+)) | 1.06 | 0.794
COC(=O)NC(=S)Nc1ccccc1NC(=S)NC(=O)OC | 0.99 | 0.937
C[C@](N)(CCP(=O)(O)O)C(=O)O | 0.97 | 0.986
O=C(O)[C@@H]1CCN1 | 0.932 | 0.86
O=C(O)Cc1cnc[nH]1 | 0.944 and 1.14 | 0.715 and 1.08
CC(C)(C)NCC(O)COc1cccc2[nH]c(C#N)cc12 (single isomer, unassigned; (-)) | 0.962 | 0.862
CNC(=O)Oc1ccccc1OC(C)C | 0.891 | 1.02
C[C@]12COC(=O)C[C@@H]1CC[C@@H]1[C@@H]2CC[C@@]2(C)[C@H]1CC[C@]2(C)O | 1.03 | 1.01
CCCn1c(C)c(C(=O)c2cccc3ccccc23)c2ccccc21 | 0.957 | 0.853
O=C(C[S+]([O-])C(c1ccccc1)c1ccccc1)NO (stereo unspecified) | 0.977 | 0.998
CCC(C)C(NC(=O)C1CCCN1C(=O)C(CCC(=O)O)NC(=O)C(NC(=O)C(Cc1ccccc1)NC(=O)C1CCCN1C(=O)C(N)Cc1ccc(O)cc1)C(C)C)C(=O)O (stereo unspecified) | 1.05 | 0.972
O=P1(N(CCCl)CCCl)NCCCO1 (stereo unspecified) | 0.993 and 0.979 | 0.957 and 0.918
c1ccc2c(c1)sc1ccccc12 | 1.05 | 0.946
CO[C@@H]1C=C2CCN(C)[C@@H]2C2c3cc4c(cc3C(=O)OC21)OCO4 (stereo partly specified) | 1.05 | 1.08
CC(=O)OCC1=C(C(=O)[O-])N2C(=O)[C@@H](NC(=O)CCC[C@@H](N)C(=O)[O-])[C@H]2SC1.[Zn+2] | 1.12 | 1.05
CN1C(=O)CCS(=O)(=O)C1c1ccc(Cl)cc1 (stereo unspecified) | 0.985 | 0.976
CCCCCCC(=O)CCCCCC/C=C/C[C@@H](O)[C@H](O)[C@@](N)(CO)C(=O)O | 1.26 | 1.35
COP(=S)(OC)Oc1ccc(Sc2ccc(OP(=S)(OC)OC)cc2)cc1 | 1.1 | 0.974
COc1cc2c(cc1OC)C13CC[N+]4([O-])CC5=CCOC6CC(=O)N2C1C6C5CC34 (stereo unspecified) | 1.02 | 0.997

Structure (SMILES) | PER2::LUC luminescence (time after treatment 24 h) | PER2::LUC luminescence (time after treatment 30 h)
CCOP(=S)(OCC)Oc1nc(Cl)c(Cl)cc1Cl | 1.08 | 1.03
COc1ccc(/C=C2\CCCN=C2c2cccnc2)c(OC)c1 | 0.832 | 0.837
CCCN1CCO[C@@H]2c3cc(O)ccc3OC[C@H]21 (racemic) | 1.23 and 0.995 | 0.765 and 0.905
CCCN1CCO[C@@H]2c3cc(O)ccc3OC[C@H]21 | 1.07 and 1.03 and 1.19 | 0.968 and 0.946 and 0.997
Cc1ccc(-n2nccn2)c(C(=O)N2CCN(c3nc4cc(Cl)ccc4o3)CC[C@H]2C)c1 | 0.986 and 0.694 | 0.965 and 0.954
c1ccc2c3c([nH]c2c1)CNCC3 | 0.992 and 0.964 | 1.07 and 1
CN(C(=O)Cc1ccccc1)[C@H](CN1CCCC1)c1ccccc1 | 0.98 | 0.923
CN1CCN(c2cccc3[nH]c(=O)oc23)CC1 | 0.962 | 0.999
CCCCCCCCCCCCCCCC[n+]1ccccc1 | 0.146 and 0.154 | 0.201 and 0.12
C=CCC1(C(C)CCC)C(=O)NC(=S)NC1=O (stereo unspecified) | 0.974 | 0.97
CC(=O)O[C@@H]1CC[C@@]2(C)[C@@H](CC[C@@H]3[C@@H]2CC[C@]2(C)C(=O)CC[C@@H]32)C1 | 0.99 | 1
COC(=O)c1cc2c(cn1)[nH]c1ccccc12 | 0.974 | 0.935
C[C@@H]1O[C@@H](O[C@H]2C[C@@H](O)[C@]3(CO)[C@H]4[C@H](O)C[C@]5(C)[C@@H]([C@@H]6COC(=O)C6)CC[C@]5(O)[C@@H]4CC[C@]3(O)C2)[C@H](O)[C@H](O)[C@H]1O | 0.939 | 0.777
c1ccc(/N=N/c2ccccc2)cc1 | 1.07 | 1
C[C@@H]1CC[C@]2(NC1)O[C@H]1C[C@H]3[C@@H]4CC=C5C[C@@H](O)CC[C@]5(C)[C@H]4CC[C@]3(C)[C@H]1[C@@H]2C | 0.944 | 1.02
CN1C2CC(=O)CC1C(O)C2 (stereo unspecified) | 0.978 | 0.972
O=C1C(Cl)=C(Cl)C(=O)C(Cl)=C1Cl | 0.974 | 1.06
O=C1N=c2cc([N+](=O)[O-])c([N+](=O)[O-])cc2=NC1=O | 0.996 | 0.963
